Measurements from PMC4336329 (PLoS ONE, 2015).
Among all 310,000 compounds or so, about 14,000 (4.5%) showed an effect of 50% or more. Effects have a minus sign here. This is one part of the list.

molecular target: human ether-à-go-go-related gene (hERG) potassium channel (human, UniProt Q12809); experiment: primary screen, population patch clamp on CHO cells stably expressing hERG
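Also: peak tail current of the secondary pulse compared with the same well before compound.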

human ether-à-go-go-related gene (hERG) potassium channel, sequence (Q12809 whole entry, looked up): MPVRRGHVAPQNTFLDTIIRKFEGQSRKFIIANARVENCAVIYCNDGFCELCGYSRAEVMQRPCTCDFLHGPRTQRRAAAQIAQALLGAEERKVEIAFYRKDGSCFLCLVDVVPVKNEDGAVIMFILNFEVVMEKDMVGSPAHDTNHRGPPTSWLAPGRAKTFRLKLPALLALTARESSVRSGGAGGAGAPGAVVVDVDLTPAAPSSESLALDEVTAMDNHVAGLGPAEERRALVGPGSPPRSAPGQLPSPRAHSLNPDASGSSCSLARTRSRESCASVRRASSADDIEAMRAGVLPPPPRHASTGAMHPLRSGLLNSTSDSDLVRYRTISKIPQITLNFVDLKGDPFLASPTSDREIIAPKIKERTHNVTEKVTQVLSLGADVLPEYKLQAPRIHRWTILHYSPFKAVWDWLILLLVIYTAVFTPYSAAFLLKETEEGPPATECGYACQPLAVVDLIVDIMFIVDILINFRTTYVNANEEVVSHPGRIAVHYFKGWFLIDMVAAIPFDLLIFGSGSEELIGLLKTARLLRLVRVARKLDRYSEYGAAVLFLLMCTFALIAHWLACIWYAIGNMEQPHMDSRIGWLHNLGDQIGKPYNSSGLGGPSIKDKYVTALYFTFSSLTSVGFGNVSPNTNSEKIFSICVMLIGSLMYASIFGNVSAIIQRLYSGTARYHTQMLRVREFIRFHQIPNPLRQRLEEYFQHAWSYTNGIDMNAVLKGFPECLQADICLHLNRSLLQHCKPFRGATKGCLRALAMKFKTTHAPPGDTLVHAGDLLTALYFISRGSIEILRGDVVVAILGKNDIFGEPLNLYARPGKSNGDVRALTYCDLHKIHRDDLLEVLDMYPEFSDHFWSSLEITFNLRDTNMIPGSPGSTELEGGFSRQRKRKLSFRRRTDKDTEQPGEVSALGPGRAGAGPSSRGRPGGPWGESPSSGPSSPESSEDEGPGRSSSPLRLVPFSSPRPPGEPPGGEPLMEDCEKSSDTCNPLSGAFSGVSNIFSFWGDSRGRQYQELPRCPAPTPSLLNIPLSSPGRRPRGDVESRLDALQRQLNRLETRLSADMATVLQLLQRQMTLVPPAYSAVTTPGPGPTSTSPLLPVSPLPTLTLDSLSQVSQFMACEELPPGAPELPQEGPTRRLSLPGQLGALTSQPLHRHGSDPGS

| SMILES | hERG current change (%, negative = inhibition) at 10uM |
| --- | --- |
| O=C(O)/C=C/C(=O)NCCc1ccc(Cl)cc1 | 12.7% |
| CC(C)CC(NC(=O)C1CCC(C)CC1)C(=O)Nc1ccccn1 (centres unmarked) | -11% |
| Cc1cc(Br)ccc1NC(=O)CCN1C(=O)c2ccncc2C1=O | -3.48% |
| COCCCNCC1C(Oc2ccc(Cl)cc2)C(=O)N1c1ccccc1C (centres unmarked) | -8.54% |
| FC(F)(F)c1cccc(NC(=S)Nc2cccc(Cl)c2)c1 | 4.53% |
| CN(C)CCOC(=O)NCC12CC3CC(CC(C3)C1)C2.Cl | 1.57% |
| Cc1oc(S(=O)(=O)N2CCOCC2)cc1C(=O)Nc1ccc(Cl)cc1 | -2.49% |
| O=C(CCS(=O)(=O)c1ccccc1)N1CCCc2ccccc21 | 3.48% |
| COC(=O)CSc1nc(N)c(C#N)c(CC(C)C)c1C#N | 3.52% |
| Cc1cc(=O)[nH]c(SCCCOc2ccccc2Cl)n1 | 3.82% |
| O=C(Nc1ccc(N2CCN(C(=O)c3ccccc3)CC2)cc1)c1ccc2c(c1)OCO2 | -16.4% |
| Cc1ccc(NC(=S)N2CCc3[nH]c4ccccc4c3C2)cc1 | 9.63% |
| Cc1ccc(-c2cn3cccnc3n2)cc1NC(=O)c1cccs1 | 0.102% |
| Cc1ccc(S(=O)(=O)N2CCN(C(=O)c3ccccc3)CC2)c(C)c1NS(C)(=O)=O | 3.29% |
| CN(CC(=O)Nc1ccccc1Cl)C(=O)c1cccc(-n2cccc2)c1 | -19.4% |
| COC(=O)c1ccc(OCC(=O)Nc2nn(-c3ccccc3)nc2C(N)=O)cc1 | -5.7% |
| COC(=O)c1ccc(C(C(=O)NCc2ccccc2)N(Cc2cccs2)C(=O)c2cnccn2)cc1 (centres unmarked) | -23.2% |
| C=CCNC(=S)NCC | 28.1% |
| CCCSc1nc2c(c(=O)n(C)c(=O)n2C)n1C | 2.25% |
| CC1(C)CCc2cc(CN3CCN(c4ccccn4)CC3)ccc2O1 | 0.624% |
| O=C(NC1CCCCC1)Nn1c(-c2ccccc2)nc2ccccc2c1=O | -7.53% |
| COC(=O)c1ccc(C(=O)OC)c(NC(=O)CN2CCN(c3ccccc3)CC2)c1 | -5.1% |
| CCN(C(=O)c1cnc(OC)cc1C(F)(F)F)c1ccc(Cl)cc1Cl | 5.73% |
| CC1=C(C(=O)OC(C)C)C2(O)C(=O)c3ccccc3C2(O)N1 (centres unmarked) | 12% |
| COc1ccc(-c2c(C)oc3ccc(C)cc23)cc1 | 2.28% |
| S=C(NN=C(C1CC1)C1CC1)Nc1ccccc1 | 7.42% |
